# From PubChem BioAssay AID720536 (National Center for Advancing Translational Sciences (NCATS), 2013)
# The whole screen tested about 1,600 compounds, of which about 650 (41%) were called active. The set was probably picked from earlier hits. Inconclusive means that the source gave no clear call. Such entries were picked first, then a sample of the others. The call rests on the fitted dose curve; in most records, active means well fitted inhibition curve with a large enough effect; inconclusive means small, poorly fitted or top-dose-only effect; inactive means no such curve, though single readings can be large or run the other way. Potencies of inconclusive entries are left out as doubtful fits.
# Assay: qHTS for Inhibitors of TGF-b: CCL64 Cells Orthogonal Assay for Cherry Picks; further: nearly all actives have a fitted effect of over 65% in size;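 on activity, negative = inhibition: 0% = stimulated DMSO wells and full inhibition = unstimulated wells without TGF-beta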
# Settings: CCL64 CAGA-GFP reporter, TGF-b stimulated, GFP fluorescence, 18 h; activity, negative = inhibition: at 46.1 µM (top of the series)
# How it was run: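 CCL64 cells carrying a CAGA-GFP reporter (1000/well, DMEM with 1% FBS) were pre-incubated 2 h at 37 degrees C, given compound, then stimulated with 500 pg/mL TGF-beta for 18 h. Per-cell GFP fluorescence was summed per well.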
# Potency means the concentration at half of the fitted maximal effect; tags describe the fitted curve by direction and shape.
Compound,Potency,"activity, negative = inhibition"
O=S(=O)(c1ccccc1F)N1CCN(Cc2cc3c(cc2Br)OCCO3)CC1,"inconclusive [inhibitor, single point]",
COc1ccc(/C(C)=N/Nc2nc3ccccc3nc2C)cc1,,inactive: -13.5%
Nc1ccc(C(=O)N/N=C/c2cn(Cc3ccc(F)cc3)c3ccccc23)cc1,,inactive: -1.45%
O=C1C(Nc2ccccc2)=C(NS(=O)(=O)c2ccccc2)C(=O)c2ccccc21,,inactive: 3.51%
COC(=O)c1ccc(C)c(NS(=O)(=O)c2ccc(OC)cc2)c1,"inconclusive [inhibitor, partial curve]",
COc1cc(C(=O)c2cocc2C(=O)c2ccc3c(c2)OCO3)cc(OC)c1OC,,inactive: -15.1%
O=C1N[C@@H](Cc2c[nH]c3ccccc23)COC(=O)[C@@H](Cc2ccc(F)cc2)CC/C=C/C[C@@H]1CC(=O)N(CCO)Cc1ccccc1,"inconclusive [inhibitor, partial curve]",
O=C1CS(=O)(=O)N(Cc2ccccc2F)c2ccc(Br)cc21,"inconclusive [inhibitor, partial curve, poor fit]",
O=c1[nH]c2ccccc2cc1-c1nnn(-c2ccc(Cl)c(Cl)c2)n1,,inactive: 6.78%
COc1ccc(C(NC(=O)C(C)C)c2ccc3cccnc3c2O)cc1 (stereo not given),active: 7.31 µM,
O=[N+]([O-])c1cccc(N=Nc2ccc(O)cc2O)c1,active: 5.8 µM,
COC(=O)c1c(NC(NC(C)=O)C(Cl)(Cl)Cl)sc2c1CCCC2 (stereo not given),active: 16.4 µM,
NC1=C(Br)C(=O)c2ncccc2C1=O,active: 4.61 µM,
CCCCc1ccc(NC(=S)Nc2ccc(Nc3ccc(OC)cc3)cc2)cc1,"inconclusive [inhibitor, partial curve, poor fit]",
COc1ccc(CNC(=S)N/N=C/c2ccc(O)c(OC)c2)cc1,,inactive: -17.8%
COc1ccccc1-c1cc(NC=O)c2ncc(-c3cccc(C(=O)N(C)C)c3)n2c1,"inconclusive [inhibitor, single point]",
Cc1cc(C)nc(-n2nc(C)cc2NC(=O)CN2CCC(C)CC2)n1,,inactive: -11.7%
O=C(N/N=C/c1cn(Cc2ccccc2)c2ccccc12)c1ccncc1,,inactive: 3.62%
O=C(c1ccc(Cl)c(Cl)c1)N1CCC(=O)N(C(COCc2ccc(Cl)cc2)Cc2ccccc2)CC1 (stereo not given),"inconclusive [inhibitor, single point]",
O=C(O)c1cc(-c2ccc(-c3c(-c4ccc5c(c4)OCO5)noc3-c3ccsc3)cc2)nc2ccccc12,active: 18.4 µM,
CC(C)C[C@H]1CN([C@@H](Cc2ccc(O)cc2)CN2CCC[C@@H]2CN2C(=S)NC[C@@H]2Cc2ccccc2)C(=S)N1CC1CCCCCC1,"inconclusive [inhibitor, single point]",
O=C(Oc1c(CN2CCOCC2)cc(Cl)c2cccnc12)c1ccccc1Br,"inconclusive [inhibitor, single point]",
COCCNc1nc(NCc2cccs2)nc2ccsc12,"inconclusive [inhibitor, single point]",
COc1ccc(S(=O)(=O)N2CCOCC2)cc1NC(=O)CSc1nnc(N)s1,,inactive: 3.22%

Compound,Potency,"activity, negative = inhibition"
CCC1=Nc2cc(C(=O)NCC3CCCO3)ccc2Sc2ccc(Br)cc21 (stereo not given),"inconclusive [inhibitor, partial curve, poor fit]",
C=CCNC(=O)c1onc(CSc2ccc(F)cc2)c1C(=O)NCCOC,,inactive: 12.4%
CC(C)CC(NC(=O)c1cccs1)c1nnc(SCc2ccc(Cl)c(Cl)c2)n1C (stereo not given),"inconclusive [inhibitor, single point]",
Cc1ccc(NC(=S)/N=C(\N)Nc2nc(C)c3cc(C)ccc3n2)c(C)c1,"inconclusive [inhibitor, partial curve, poor fit]",
Cc1oc2c(c1C(=O)N1CCC(C)CC1)C(=O)c1ccccc1C2=O,active: 11.6 µM,
O=C(Nc1ccccc1)[C@@H]1CC=C[C@@H]2CCN(Cc3ccc(Cl)c(Cl)c3)C(=O)[C@@H]21,"inconclusive [inhibitor, single point]",
CCOC(=O)N1CCN(C(=O)COc2cccc3c2CCN(Cc2cccc(C)c2)C3=O)CC1,"inconclusive [inhibitor, single point]",
NC(=O)c1cc([N+](=O)[O-])c(Cl)cc1NCc1ccncc1,,inactive: -8.67%
c1ccc(CNc2nc(NCCc3ccncc3)c3sccc3n2)cc1,active: 4.61 µM,
Cc1cccc(N2CCN(C(=O)CCCSc3nc4ccccc4[nH]3)CC2)c1C,active: 13 µM,
COc1ccc(NS(=O)(=O)c2cccc(NC(=O)CCC(=O)c3ccc(Cl)cc3)c2)cc1,"inconclusive [inhibitor, single point]",
COc1ccc(O)c(-c2cc(-c3ccccc3Cl)[nH]n2)c1,active: 25.9 µM,
O=c1c2cn[nH]c2nc(SCc2ccccc2F)n1-c1ccc(Br)cc1,"inconclusive [inhibitor, single point]",
CC(C(=O)N1CCc2ccccc21)N1CCN(c2cccc(C(F)(F)F)c2)CC1 (stereo not given),"inconclusive [inhibitor, single point]",
Cc1ccc(NC(=O)c2cc(S(=O)(=O)N(C)C)ccc2N2CCCC2)cc1F,active: 18.4 µM,
O=C(Nc1ccccc1)Nc1nnc(CSCc2ccccc2Cl)s1,"inconclusive [inhibitor, single point]",
CCCn1c(C(C)Nc2nc(-c3ccc(C)cc3)cs2)nc2ccccc21 (stereo not given),"inconclusive [inhibitor, partial curve, poor fit]",
Cc1ccc(-c2ccc(SCC(=O)Nc3ccc4c(c3)OCCO4)nn2)cc1,,inactive: 7.87%
C=CCn1c(CSCc2ccc(Cl)cc2)nnc1SCC(=O)NCc1ccccc1,,inactive: -33.8%
COc1ccc(S(=O)(=O)N2CCC(C(=O)N3CCc4ccccc4C3)CC2)cc1Cl,"inconclusive [inhibitor, single point]",
CC(=O)Nc1ccc2c(c1)-c1ccc(F)cc1C2,,inactive: -0.177%
O=C(NCc1cccnc1)c1cc(Sc2cccc(Cl)c2)nc2ccccc12,"inconclusive [inhibitor, partial curve, poor fit]",
CC(=O)c1ccc(NC(=O)COC(=O)c2c3c(nc4ccccc24)/C(=C\c2cccs2)CCC3)cc1,active: 1.46 µM,
Cc1cc(N2CCOCC2)nc(NCc2ccccc2)n1,"inconclusive [inhibitor, single point]",

Compound,Potency,"activity, negative = inhibition"
CC1=C(C(=O)Nc2cccc(F)c2)C(c2ccsc2)C2=C(CC(C)(C)CC2=O)N1 (stereo not given),,inactive: -22.4%
CCN(CC)C(=O)C1=C(C)N(Cc2ccc(C(C)(C)C)cc2)C(=O)C(CC(=O)NCc2cccc3ccccc23)C1 (stereo not given),"inconclusive [inhibitor, single point]",
CC(=O)c1cn(CC(=O)Nc2c(C)cccc2C)c2ccccc12,,inactive: -2.56%
CCOC(=O)C1CCN(C(c2cccnc2)c2c(NC(=O)c3ccco3)sc(C)c2C)CC1 (stereo not given),"inconclusive [inhibitor, single point]",
Cc1oc2cc(Br)c(O)c(Br)c2c1-c1ccccc1,"inconclusive [inhibitor, single point]",
O=C(Nc1cccc(-n2cnnn2)c1)c1cc(Cl)ccc1Cl,,inactive: -6.47%
COc1ccccc1N1CCN(Cc2cc(Br)c(O)c3ncccc23)CC1,active: 4.11 µM,
O=C(NCCN1CCOCC1)c1ccc(Cl)c(S(=O)(=O)N2CCCCCC2)c1,,inactive: -2.51%
CCCOc1ccc(F)cc1-c1cc(C(=O)Nc2ccc(F)c(Cl)c2)[nH]n1,active: 25.9 µM,
COc1cc(OC)cc(C(=O)N[C@H](C(=O)Nc2nc(-c3ccc(OC)c(OC)c3)cs2)C(C)C)c1,,inactive: -17.7%
Cc1ccc(N2CCN(C(=O)c3cc(C(=O)c4ccccc4C)c[nH]3)CC2)c(C)c1,"inconclusive [inhibitor, single point]",
COc1ccccc1NS(=O)(=O)c1ccc(-c2cnc(C3CC3)o2)cc1,"inconclusive [inhibitor, partial curve, poor fit]",
O=C1CCCN1CCCNc1nc(NCc2cccs2)nc2ccsc12,"inconclusive [inhibitor, partial curve, poor fit]",
CCCCN(C(=O)Cc1ccc(S(=O)(=O)N2CCOCC2)s1)c1c(N)n(CCCC)c(=O)[nH]c1=O,,inactive: 15.2%
Cc1ccc(S(=O)(=O)N2CCOCC2)cc1C(=O)Nc1nc(-c2ccccn2)cs1,"inconclusive [inhibitor, partial curve, poor fit]",
NC(=O)CC(NC(=O)Cc1cccc2ccccc12)c1ccc(N2CCC(Br)CC2)c([N+](=O)[O-])c1 (stereo not given),"inconclusive [inhibitor, single point]",
Cc1ccc(Cn2nnc3c(=O)[nH]c(C4CCN(S(=O)(=O)c5cc(C)ccc5C)CC4)nc32)cc1,"inconclusive [inhibitor, single point]",
CCOC(=O)N(C)c1c(CC)nc2c(OCc3ccc(C(F)(F)F)cc3)cccn12,,inactive: 4.36%
CC(C)c1ccccc1NC(=O)Cn1c(/C=C/c2ccccc2)nc2ccccc21,"inconclusive [inhibitor, single point]",
Cc1nc(NCc2ccco2)c2c(C)c(C)sc2n1,,inactive: -99%
O=C1C(Cl)=C(NCc2cccnc2)C(=O)c2ccccc21,"inconclusive [inhibitor, single point]",
O=C(NC1=C(Nc2ccc(Cl)cc2)C(=O)c2ccccc2C1=O)c1ccccc1,"inconclusive [inhibitor, single point]",
